PMC12040169 (PLOS Biology, 2025)
Some of the results follow.

Test system: T1, C. trachomatis L2/434/Bu expressing GFP (CTL2-GFP)
T1 construct: L2/434/Bu GFP intracellular growth in HeLa cells
Parameters: species or system HeLa; C. trachomatis total inclusion area by high-content imaging, normalised to DMSO
Conditions: total inclusion area; 28.5 h, 10 µM; inhibitor
In short: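 High-content imaging followed the bulk GFP/resorufin measurement: fixed, Hoechst-stained cells were scored for GFP inclusions and host nuclei per well. Total inclusion area and count served as growth proxies, nuclei number as the viability proxy. MIC calculation matched the bulk assay.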

SMILES | % of control remaining
CCC(O)Cn1nc(CCSC)nc1-c1cc(=O)n(C)c2ccccc12 (stereo not shown) [CBK306596] | 71.7912
CCC(NS(=O)(=O)c1ccc(Br)cc1)C(=O)O (stereo not shown) [CBK264472] | 108.182
CN(C)CC(=O)Nc1cc(C(F)(F)F)ccc1Cl [CBK307420] | 100.888
CC1(C)CC(=O)c2sc(NC(=O)Cc3ccc(Cl)c(Cl)c3)nc2C1 [CBK144103] | 98.9988
CN1CCC(C(=O)N2CCN(c3ncccn3)CC2)CC1 [CBK144511] | 98.0392
OCCn1c(S)nnc1-c1ccccc1 [CBK100025] | 94.8263
CC(=O)N1CCN(C(C(=O)O)c2c[nH]c3ccc(NC(=O)C(C)C)cc23)CC1 (stereo not shown) [CBK286634] | 88.0679
CN1CCN(CCC(=O)N/N=C/c2ccccn2)CC1 [CBK261501] | 83.5537
O=C(O)CCSc1c[nH]c2ccccc12 [CBK262319] | 49.7241
CC(C)c1ccc(CN2CCN(c3nccnc3NS(C)(=O)=O)CC2)cc1 [CBK084271] | 87.2762
O=C(O)CCC1C(=O)CCC1(C(=O)O)c1ccccc1 (stereo not shown) [CBK287208] | 83.525
CC1(C)CC(NC(=O)c2cccc([N+](=O)[O-])c2)CC(C)(C)N1 [CBK262952C] | 101.673
N#Cc1ccc(CN2CCN(S(=O)(=O)c3ccc(-c4ccccc4)cc3)CC2)cc1 [CBK062752] | 90.1583
O=C(Cc1ccsc1)N1CCC(c2cc3cccnc3[nH]2)CC1 [CBK285000] | 91.3479
CN(C)c1cccc(-c2nc(-c3occc3C=O)cnc2N)c1 [CBK064001] | 94.2181
O=C(Nc1ccccn1)c1cc(O)c(OCc2ccccc2)cn1 [CBK287989] | 101.022
Cc1nn(C)c(Cl)c1S(=O)(=O)Nc1nnc(C(F)(F)F)s1 [CBK062003] | 101.864
CC1=C(C(=O)N2CCOCC2)C(c2ccc(Cl)cc2)NC(=O)N1c1ccc(C(=O)O)cc1 (stereo not shown) [CBK296999] | 88.218
COc1cccc(CNc2nccnc2-c2ccc(S(C)(=O)=O)cc2)c1OC [CBK037452] | 80.4873
CC(C)(C)C1=CC2=NC3(CCOCC3)[C@@H]3C[C@@H](O)[C@@H](O)[C@@H]3N2O1 [CBK303244] | 63.9192
C[C@H]1[C@@H]2[C@@H](O)C([C@H](C)C(=O)NC3CC3)CC[C@@]2(C)CC[C@@H]1NC(=O)C1CC1 (stereo partly shown) [CBK289442] | 83.1549
CCCc1[nH]nc(O)c1CC1CC1 [CBK081129] | 88.6398
COc1ccc(C2(NCc3ccc4c(c3)n(C)c(=O)n4C)CC2)cc1 [CBK282836] | 76.8757
COc1ccc(N(C)C(=O)N[C@@H]2CC[C@@]3(c4ccc(OC)c(OC)c4)CCN(C)[C@H]3C2)cc1 [CBK045653T] | 48.1541
COc1ccc(C(=O)N2CCN(c3ncnc4onc(C)c34)CC2)cc1 [CBK304372] | 71.9271
COc1ccc(C2N(Cc3ccccc3)CCN2Cc2ccccc2)c(OC)c1OC [CBK265220] | 80.8205
O=C1C=C(OCc2ccccc2)CN1 [CBK020360] | 43.121

SMILES | % of control remaining
O=C(Cc1csc(-c2ccc(F)cc2)n1)Nc1ccc(F)cc1 [CBK295177] | 92.7958
COc1ccc(CC(=O)N2CCCC2c2nc3ccccc3[nH]2)cc1 (stereo not shown) [CBK283666] | 90.4312
COc1ccc(C(=O)CSc2nnc3n(N)cnn23)cc1 [CBK263201] | 102.625
Cc1ccc(C(=O)Nc2cccc3cccnc23)cc1Br [CBK265189] | 75.7391
FC(F)(F)c1ccnc(OCCNc2ccccc2)c1 [CBK115824] | 79.373
Cc1cc(C)nc(NS(=O)(=O)c2ccc(NC(=O)N3c4ccccc4Sc4ccccc43)cc2)n1 [CBK263922] | 26.0898
COC(=O)c1ccsc1NS(=O)(=O)c1ccc(NC(C)=O)cc1 [CBK039063] | 78.4123
CC(C)N(C)CCOc1ncccc1OCCO [CBK039171] | 68.5276
COc1ccc(CNC(=O)CC[C@H]2CNC(=O)[C@H]3NCC[C@H]3N2C)cc1 [CBK289025] | 78.9483
CC(C)(C)NC(=O)Cn1c(-c2cccs2)cc2cccnc21 [CBK282455] | 135.354
CCCCNc1nccnc1-c1ccccc1 [CBK088477] | 88.1353
Clc1nc(NCCN2CCOCC2)nc(N2CCCCCC2)n1 [CBK027412] | 60.677
FC(F)(F)c1nc2ccccc2nc1SCc1ccccc1 [CBK103732] | 104.807
CCOC(=O)C1CC2CCC1C[C@]21NC(=O)c2ccccc2N1 (stereo partly shown) [CBK284441] | 79.9969
O=C(NC(=O)N1CCC2(CC1)NCCc1c2[nH]c2ccc(O)cc12)c1ccccc1 [CBK046936] | 90.6601
Cn1cnnc1SCC(C)(C)NS(=O)(=O)c1ccccc1 [CBK268276] | 90.0434
CCc1nnc(NCC2CCCCC2)s1 [CBK075044] | 80.5911
Cc1nn2c3ccccc3nc2n1CCN1CCCCC1 [CBK278256C] | 85.8595
COc1ccc(CN2CCN(Cc3ccccc3[N+](=O)[O-])CC2)c(OC)c1 [CBK263340] | 89.6506
C[S+]([O-])c1ccc(-c2ccc(CN(C3CC3)C3CCN(c4ncccn4)CC3)cn2)cc1 (stereo not shown) [CBK172877] | 95.3038
Cc1nn(Cc2ccc(C(=O)Nc3c(C)nn(Cc4ccc(Cl)c(Cl)c4)c3C)o2)c(C)c1Br [CBK265855] | 73.1608
Nc1nc(OCCOc2ccccc2)cnc1-c1ccsc1 [CBK145163] | 97.1772
Cc1ccc(C(=O)Nc2nc3ccc4nc(C)sc4c3s2)cc1 [CBK287305] | 77.8773
Cc1ccc2c(c1)nc(CNC(=O)NC1CCCc3cn[nH]c31)n2C (stereo not shown) [CBK305554] | 61.3727
Nc1cc2ccccc2c(-c2cc(F)cc(F)c2)n1 [CBK085711] | 97.2865
O=C(O)c1csc(S(=O)(=O)Nc2ccc(Br)cc2Cl)c1 [CBK297731] | 49.7155
CC1(C)CC(NC(=O)CCc2cc(C(C)(C)C)c(O)c(C(C)(C)C)c2)CC(C)(C)N1 [CBK261986] | 77.1999

SMILES | % of control remaining
COc1ccc(C(=O)N[C@H]2CO[C@H]3[C@@H]2OC[C@H]3OC(=O)Nc2ccccc2)cc1 [CBK289463] | 107.623
CCOC(=O)c1c(-c2ccccc2)csc1NS(=O)(=O)c1ccc(C)cc1 [CBK015841] | 105.43
COc1ccc(C(=O)Nc2cc3ccccc3c(N3CCNCC3)n2)cc1 [CBK036344T] | 64.6195
CCOc1ccc(-c2ccnc(C)n2)cc1C(=O)O [CBK306505] | 105.642
COc1ncc(-c2cccc(NCC(c3cccnc3)N(C)C)n2)c(OC)n1 (stereo not shown) [CBK037723] | 104.527
Clc1ccc(COc2cccc(CNCCN3CCOCC3)c2)cc1 [CBK278227C] | 77.5636
C=CCn1c(Cc2csc(NC(=O)c3cnc(SC)n3-c3ccccc3)n2)n[nH]c1=S [CBK297786] | 79.3696
Cn1cccc1C(=O)N[C@H]1CCN2C(=O)N(c3ccc(OC(F)(F)F)cc3)C(=O)[C@@H]2C1 [CBK289548] | 113.191
CN(Cc1nc2c(s1)CCCC2)C(=O)c1ccc2[nH]cnc2c1 [CBK304138] | 74.2601
Cc1ccc2[nH]c(Cc3ccc(NC(=O)c4cccc5c(=O)cc(C)[nH]c45)cc3)nc2c1 [CBK285814] | 104.259
Cc1cccnc1NC(=O)c1cccc(C(=O)Nc2ncccc2C)c1 [CBK262184] | 97.1791
COc1ccc(-c2c[n+]3ccccc3c(=O)[nH]2)cc1 [CBK011078B] | 123.224
Cc1cc(CSc2ccccc2)ccc1NC(=O)/C=C/c1cccc([N+](=O)[O-])c1 [CBK264687] | 94.1005
CCc1ccc(C(=O)NC(Cc2c[nH]c3ccccc23)C(=O)O)cc1 (stereo not shown) [CBK269556] | 86.5207
COc1ccccc1-c1ncc(OCC(F)(F)F)nc1NC(=O)C1CC1 [CBK145275] | 106.812
C=CCOC(=O)N1CCC(C(=O)N(C)C(c2cccc(OC)c2)c2ccccn2)CC1 (stereo not shown) [CBK060244] | 83.9906
CN1CCN(c2ccc(-c3cccc(N(C)C)c3)cn2)CC1 [CBK037621] | 110.012
O=C(CCn1c(C(F)(F)F)cc2cccnc21)NCc1cccnc1 [CBK284865] | 82.0229
CC(=O)NCCC(CN1CCOCC1)([N+](=O)[O-])[N+](=O)[O-] [CBK261338] | 99.3333
O=C(c1ccccc1)N1C[C@@H](c2ccsc2)[C@@H]2CN(Cc3ccc(Cl)cc3)CC[C@@H]21 [CBK285615] | 50.8439
O=C(CN(c1cc(Cl)ccc1Cl)S(=O)(=O)c1ccccc1)Nc1cccnc1 [CBK268708] | 75.3349
CC[C@H]1CCCCN1C(=O)c1sc2nc(C(C)=O)ccc2c1Cl [CBK091046] | 70.7906
Nc1ncc(-c2cccc(O)c2)nc1-c1ccc(CCC(=O)O)cc1 [CBK064135] | 82.0808
O=C(NCc1ccco1)c1nccnc1-c1ccc(COc2ccc3c(c2)CCCC3)cc1 [CBK050851] | 116.365
O=C(c1ccsc1)N1CCC2(CC1)CN(Cc1ccccc1)CC(c1ccccc1)O2 (stereo not shown) [CBK286438] | 60.2427
